Experimental data as given in the supplement of paper PMC8728848.
Some of the results follow.

What was measured:
Assay in all cases: glycan array binding signal (z-score within array); higher = stronger binding
Conditions in all cases: glycan notation: IUPAC condensed, linker removed
Gal4S6S(b1-4)GlcNAc = molecular target: Gal4S6S(b1-4)GlcNAc
Summary of the method: (§1)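 Glycan array data came from 3228 arrays in the Consortium for Functional Glycomics database, and only arrays with an available protein sequence were kept. Glycan names were put into IUPAC-condensed notation, and columns mapping to the same glycan were averaged. The binding signal is a within-array Z-score, averaged across arrays of one protein sequence run at different concentrations or buffers and across linkers. A negative Z-score can be read as non-binding.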

Gal6S(b1-4)Glc = molecular target: Gal6S(b1-4)Glc
Summary of the method: as §1

Gal6S(b1-4)Glc6S = molecular target: Gal6S(b1-4)Glc6S
Summary of the method: as §1

Gal6S(b1-4)GlcNAc = molecular target: Gal6S(b1-4)GlcNAc
Summary of the method: as §1

GalNAc(a1-3)Gal = molecular target: GalNAc(a1-3)Gal
Summary of the method: as §1

GalNAc(a1-3)GalNAc = molecular target: GalNAc(a1-3)GalNAc
Summary of the method: as §1

[1] = molecular target: GalNAc(b1-3)Gal(a1-4)Gal(b1-4)GlcNAc
Summary of the method: as §1

GalNAc(b1-3)GalNAc = molecular target: GalNAc(b1-3)GalNAc
Summary of the method: as §1

GalNAc(b1-4)GlcNAc = molecular target: GalNAc(b1-4)GlcNAc
Summary of the method: as §1

Glc(a1-4)Glc = molecular target: Glc(a1-4)Glc
Summary of the method: as §1

Glc(a1-6)Glc(a1-6)Glc = molecular target: Glc(a1-6)Glc(a1-6)Glc
Summary of the method: as §1

Glc(b1-4)Glc = molecular target: Glc(b1-4)Glc
Summary of the method: as §1

Glc(b1-6)Glc = molecular target: Glc(b1-6)Glc
Summary of the method: as §1

GlcA(b1-3)Gal = molecular target: GlcA(b1-3)Gal
Summary of the method: as §1

GlcA(b1-6)Gal = molecular target: GlcA(b1-6)Gal
Summary of the method: as §1

[2] = molecular target: GlcNAc(a1-3)Gal(b1-4)GlcNAc
Summary of the method: as §1

[3] = molecular target: GlcNAc(a1-6)Gal(b1-4)GlcNAc
Summary of the method: as §1

[4] = molecular target: GlcNAc(b1-2)Gal(b1-3)GalNAc
Summary of the method: as §1

[5] = molecular target: GlcNAc(b1-2)Man(a1-3)[GlcNAc(b1-2)Man(a1-6)]Man(b1-4)GlcNAc(b1-4)GlcNAc
Summary of the method: as §1

GlcNAc(b1-3)Gal = molecular target: GlcNAc(b1-3)Gal
Summary of the method: as §1

[6] = molecular target: GlcNAc(b1-3)Gal(b1-3)GalNAc
Summary of the method: as §1

GlcNAc(b1-3)Gal(b1-4)Glc = molecular target: GlcNAc(b1-3)Gal(b1-4)Glc
Summary of the method: as §1

[7] = molecular target: GlcNAc(b1-3)Gal(b1-4)GlcNAc
Summary of the method: as §1

[8] = molecular target: GlcNAc(b1-3)Gal(b1-4)GlcNAc(b1-3)Gal(b1-4)GlcNAc
Summary of the method: as §1

GlcNAc(b1-3)GalNAc = molecular target: GlcNAc(b1-3)GalNAc
Summary of the method: as §1

[9] = molecular target: GlcNAc(b1-3)[GlcNAc(b1-6)]Gal(b1-4)GlcNAc
Summary of the method: as §1

[10] = molecular target: GlcNAc(b1-3)[GlcNAc(b1-6)]GalNAc
Summary of the method: as §1

[11] = molecular target: GlcNAc(b1-3)[GlcNAc(b1-6)]GlcNAc(b1-4)GlcNAc
Summary of the method: as §1

[12] = molecular target: GlcNAc(b1-4)Gal(b1-4)GlcNAc
Summary of the method: as §1

[13] = molecular target: GlcNAc(b1-4)GlcNAc(b1-4)GlcNAc
Summary of the method: as §1

[14] = molecular target: GlcNAc(b1-4)GlcNAc(b1-4)GlcNAc(b1-4)GlcNAc(b1-4)GlcNAc
Summary of the method: as §1

[15] = molecular target: GlcNAc(b1-4)GlcNAc(b1-4)GlcNAc(b1-4)GlcNAc(b1-4)GlcNAc(b1-4)GlcNAc
Summary of the method: as §1

[16] = molecular target: GlcNAc(b1-4)[GlcNAc(b1-6)]GalNAc
Summary of the method: as §1

[17] = molecular target: GlcNAc(b1-6)Gal(b1-4)GlcNAc
Summary of the method: as §1

GlcNAc(b1-6)GalNAc = molecular target: GlcNAc(b1-6)GalNAc
Summary of the method: as §1

Kdn(a2-3)Gal(b1-3)GlcNAc = molecular target: Kdn(a2-3)Gal(b1-3)GlcNAc
Summary of the method: as §1

Kdn(a2-3)Gal(b1-4)GlcNAc = molecular target: Kdn(a2-3)Gal(b1-4)GlcNAc
Summary of the method: as §1

[18] = molecular target: Man(a1-2)Man(a1-2)Man(a1-3)Man
Summary of the method: as §1

[19] = molecular target: Man(a1-2)Man(a1-2)Man(a1-6)[Man(a1-3)]Man
Summary of the method: as §1

Man(a1-2)Man(a1-3)Man = molecular target: Man(a1-2)Man(a1-3)Man
Summary of the method: as §1

[20] = molecular target: Man(a1-2)Man(a1-3)[Man(a1-2)Man(a1-6)]Man
Summary of the method: as §1

[21] = molecular target: Man(a1-2)Man(a1-3)[Man(a1-2)Man(a1-6)]Man(a1-6)[Man(a1-2)Man(a1-2)Man(a1-3)]Man(b1-4)GlcNAc(b1-4)GlcNAc
Summary of the method: as §1

[22] = molecular target: Man(a1-2)Man(a1-3)[Man(a1-6)]Man(a1-6)[Man(a1-2)Man(a1-3)]Man(b1-4)GlcNAc(b1-4)GlcNAc
Summary of the method: as §1

[23] = molecular target: Man(a1-2)Man(a1-6)[Man(a1-3)]Man(a1-6)[Man(a1-2)Man(a1-2)Man(a1-3)]Man(b1-4)GlcNAc(b1-4)GlcNAc
Summary of the method: as §1

Man(a1-3)[Man(a1-6)]Man = molecular target: Man(a1-3)[Man(a1-6)]Man
Summary of the method: as §1

B1: LKPARMA (Neurospora crassa) (protein)
chain: MSFHVTAEDARRIEVRDNRTILFARLRREDGEWNDASYELDQIIGNNDGHFQWGGGQNFTETAEDIRFHPKEGAAEQPILRARLRDCNGEFHDRDVNLTEIVENVNGEFQAKF
glycan array binding signal (z-score) (Gal4S6S(b1-4)GlcNAc): -0.246 | glycan array binding signal (z-score) (Gal6S(b1-4)Glc): -0.252 | glycan array binding signal (z-score) (Gal6S(b1-4)Glc6S): -0.087 | glycan array binding signal (z-score) (Gal6S(b1-4)GlcNAc): -0.246 | glycan array binding signal (z-score) (GalNAc(a1-3)Gal): -0.252 | glycan array binding signal (z-score) (GalNAc(a1-3)GalNAc): -0.249 | glycan array binding signal (z-score) [1]: 2.94 | glycan array binding signal (z-score) (GalNAc(b1-3)GalNAc): -0.223 | glycan array binding signal (z-score) (GalNAc(b1-4)GlcNAc): -0.249 | glycan array binding signal (z-score) (Glc(a1-4)Glc): -0.245 | glycan array binding signal (z-score) (Glc(a1-6)Glc(a1-6)Glc): 7.12 | glycan array binding signal (z-score) (Glc(b1-4)Glc): 1.29 | glycan array binding signal (z-score) (Glc(b1-6)Glc): 6.76 | glycan array binding signal (z-score) (GlcA(b1-3)Gal): -0.254 | glycan array binding signal (z-score) (GlcA(b1-6)Gal): -0.17 | glycan array binding signal (z-score) [2]: -0.249 | glycan array binding signal (z-score) [3]: -0.251 | glycan array binding signal (z-score) [4]: -0.252 | glycan array binding signal (z-score) [5]: -0.251 | glycan array binding signal (z-score) (GlcNAc(b1-3)Gal): -0.249 | glycan array binding signal (z-score) [6]: -0.248 | glycan array binding signal (z-score) (GlcNAc(b1-3)Gal(b1-4)Glc): -0.243 | glycan array binding signal (z-score) [7]: -0.247 | glycan array binding signal (z-score) [8]: -0.25 | glycan array binding signal (z-score) (GlcNAc(b1-3)GalNAc): -0.249 | glycan array binding signal (z-score) [9]: -0.23 | glycan array binding signal (z-score) [10]: -0.199 | glycan array binding signal (z-score) [11]: -0.24 | glycan array binding signal (z-score) [12]: -0.252 | glycan array binding signal (z-score) [13]: -0.243 | glycan array binding signal (z-score) [14]: -0.251 | glycan array binding signal (z-score) [15]: -0.254 | glycan array binding signal (z-score) [16]: -0.251 | glycan array binding signal (z-score) [17]: -0.25 | glycan array binding signal (z-score) (GlcNAc(b1-6)GalNAc): -0.25 | glycan array binding signal (z-score) (Kdn(a2-3)Gal(b1-3)GlcNAc): -0.252 | glycan array binding signal (z-score) (Kdn(a2-3)Gal(b1-4)GlcNAc): -0.249 | glycan array binding signal (z-score) [18]: 1.38 | glycan array binding signal (z-score) [19]: 2.65 | glycan array binding signal (z-score) (Man(a1-2)Man(a1-3)Man): -0.23 | glycan array binding signal (z-score) [20]: 1.98 | glycan array binding signal (z-score) [21]: 0.133 | glycan array binding signal (z-score) [22]: -0.162 | glycan array binding signal (z-score) [23]: -0.223 | glycan array binding signal (z-score) (Man(a1-3)[Man(a1-6)]Man): -0.241
